The text below walks through data of paper PMC4336329 (PLoS ONE, 2015).

Structures are written as SMILES. The whole screen tested about 310,000 compounds, of which about 14,000 (4.5%) showed an effect of 50% or more. The effect is printed as a negative number. This is one part of the list.
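Further: peak tail current of the secondary pulse compared with the same well before compound.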

Chain of human ether-à-go-go-related gene (hERG) potassium channel (Q12809 whole entry, looked up): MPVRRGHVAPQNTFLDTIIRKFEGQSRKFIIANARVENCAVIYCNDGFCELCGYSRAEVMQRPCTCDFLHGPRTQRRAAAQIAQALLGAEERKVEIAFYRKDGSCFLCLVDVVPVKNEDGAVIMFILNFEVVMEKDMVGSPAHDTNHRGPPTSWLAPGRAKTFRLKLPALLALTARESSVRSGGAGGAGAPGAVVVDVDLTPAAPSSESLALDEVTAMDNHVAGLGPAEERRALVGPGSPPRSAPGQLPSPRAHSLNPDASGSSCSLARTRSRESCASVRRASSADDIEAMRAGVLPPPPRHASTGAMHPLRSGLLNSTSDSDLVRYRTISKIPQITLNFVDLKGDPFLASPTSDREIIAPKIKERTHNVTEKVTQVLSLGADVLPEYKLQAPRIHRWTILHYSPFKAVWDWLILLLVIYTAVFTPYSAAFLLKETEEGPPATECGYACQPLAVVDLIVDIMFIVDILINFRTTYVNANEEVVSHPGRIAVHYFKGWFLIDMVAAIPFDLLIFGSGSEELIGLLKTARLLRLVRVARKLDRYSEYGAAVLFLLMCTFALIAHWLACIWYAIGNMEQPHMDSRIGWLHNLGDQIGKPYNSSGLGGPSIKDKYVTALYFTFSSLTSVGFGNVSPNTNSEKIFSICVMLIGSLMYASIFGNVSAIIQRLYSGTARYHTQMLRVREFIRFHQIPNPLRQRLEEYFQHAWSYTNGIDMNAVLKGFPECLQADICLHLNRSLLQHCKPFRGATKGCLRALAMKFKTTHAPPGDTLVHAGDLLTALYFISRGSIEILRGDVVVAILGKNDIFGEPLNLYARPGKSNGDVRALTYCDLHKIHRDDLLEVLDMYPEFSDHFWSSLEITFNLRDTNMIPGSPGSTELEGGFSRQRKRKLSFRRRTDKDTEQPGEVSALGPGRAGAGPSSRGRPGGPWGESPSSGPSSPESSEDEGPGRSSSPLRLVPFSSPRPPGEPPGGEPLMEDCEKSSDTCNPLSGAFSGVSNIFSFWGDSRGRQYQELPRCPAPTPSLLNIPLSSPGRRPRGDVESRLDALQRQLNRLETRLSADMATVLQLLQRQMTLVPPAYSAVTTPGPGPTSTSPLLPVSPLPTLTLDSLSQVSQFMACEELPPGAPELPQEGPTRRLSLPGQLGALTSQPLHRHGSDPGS

This assay has as its target human ether-à-go-go-related gene (hERG) potassium channel (human, UniProt Q12809). In words: primary screen, population patch clamp on CHO cells stably expressing hERG.
On to `CCc1cccc(NC(=O)CCNS(=O)(=O)c2cccc3nonc23)c1`, for which the “hERG current change (%, negative = inhibition) at 10uM” value turned out to be 16.1%. The value for `CCCCC(=O)Nc1cc(Cl)ccc1C(=O)O` was 27.6%. As for `Cc1ccc2cc(CN(C)C(=O)C3CCCO3)c(=O)[nH]c2c1` (centres unmarked), the “hERG current change (%, negative = inhibition) at 10uM” value was 5.86%. Regarding `COc1ccccc1-n1c(-c2ccccc2F)nc2ccccc2c1=O`, the “hERG current change (%, negative = inhibition) at 10uM” value worked out at 7.45%. Consider `O=C(CSCc1ccccc1)Nc1ccc(S(=O)(=O)N2CCOCC2)cc1`, for which the “hERG current change (%, negative = inhibition) at 10uM” value is on record as -17.7%. The value for `COC(=O)c1c(-c2cccc(OC)c2)csc1N` was 4.73%.

Consider `CC(C)(O)C#Cc1ncc(C(F)(F)F)cc1Cl`, for which the “hERG current change (%, negative = inhibition) at 10uM” value was 17.7%. On to `NC(=O)Cn1c(=O)n(CCC(=O)Nc2ccc(F)cc2)c(=O)c2sccc21`, for which the “hERG current change (%, negative = inhibition) at 10uM” value came to 22.1%.

`Cc1ccc(CNC(=O)c2cnc3ccccc3n2)cc1`: the “hERG current change (%, negative = inhibition) at 10uM” value is recorded as -5.95%. The result for `COc1ccc(N2CCN(C(=O)COC(=O)COc3ccc(C#N)cc3)CC2)cc1` reads 3.33%; that for `O=S(=O)(c1cnc(Cl)c(Br)c1)N1CCc2ccccc21`, 1.83%; that for `COc1ccc(C2C3CCCCC3(O)CCN2C(=O)c2cccs2)cc1` (centres unmarked), 5.52%. The value for `COc1ccc(-c2coc3cc(O)ccc3c2=O)cc1OC` was 7.58%; that for `Cn1nnnc1SCC(=O)NC(=O)c1cccc([N+](=O)[O-])c1` was 2.51%. The result for `CCCC(=O)Nc1nc(-c2ccc3c(c2)CCN3S(C)(=O)=O)cs1` reads 9.03%; that for `COc1ccc(NC(=O)CCN2C(=O)c3ccc([N+](=O)[O-])cc3C2=O)c(OC)c1`, -15%; that for `COc1ccccc1CNC(=O)c1ccc(CS(=O)(=O)c2ccccc2)o1`, 1.12%. `O=C(N/C(=C\c1ccccc1)C(=O)N1CCOCC1)c1ccccc1Cl`: the “hERG current change (%, negative = inhibition) at 10uM” value worked out at 0.479%. The result for `CC(=O)c1c(C)nc2ccc(Cl)cn12` reads 9.34%. For the molecule `CCOC(=O)c1cc(C)sc1N1C(=O)C2C3C=CC(C3)C2C1=O` (centres unmarked), the “hERG current change (%, negative = inhibition) at 10uM” value is on record as -3.88%.

Regarding `CCc1cc2c(COC(=O)c3cc(S(=O)(=O)N4CCOCC4)ccc3F)cc(=O)oc2cc1O`, the “hERG current change (%, negative = inhibition) at 10uM” value is given as 6.39%.

Regarding `O=C(NCCN1C(=O)S/C(=C\c2ccccc2F)C1=O)C1CCCN1C(=O)c1cccs1` (centres unmarked), the “hERG current change (%, negative = inhibition) at 10uM” value was -23.2%.

Consider `Cc1nn(-c2ccccc2)c2c1C(c1ccc(O)c(O)c1)N1C(=N2)C(Nc2ccccc2)=Nc2ccccc21` (centres unmarked), for which the “hERG current change (%, negative = inhibition) at 10uM” value is reported as 6.99%. The value for `C=CCNc1nnc(SC2CC(=O)N(c3ccc(OC)cc3)C2=O)s1` (centres unmarked) was -0.141%; that for `Cc1cc(/C=C2\C(=N)N3N=C(c4ccco4)SC3=NC2=O)c(C)n1Cc1ccccc1` was -10.8%. The value for `Cc1cccc(/C=N/Nc2nncc3ccccc23)c1` was -21.1%; that for `Cc1nc(SCC(=O)N2CC(=O)Nc3ccccc32)nc(C)c1C` was 37.3%. The value for `CCc1ccc(NC(=O)CSc2nc3n[nH]c(C)c3c(=N)n2-c2cccc(OC)c2)cc1` was -8.13%; that for `Fc1ccccc1CSc1ccc(-c2ccco2)nn1` was -45.9%; that for `COc1ccccc1CNS(=O)(=O)c1ccc(-c2cnc(C3CC3)o2)cc1` was -6.72%. With `N#CCc1ccc(NC(=O)c2ccc(CN3CCc4ccccc4C3)cc2)cc1`, the “hERG current change (%, negative = inhibition) at 10uM” value turned out to be 13.2%.

For the molecule `Cc1cccc(OC(=O)c2cn(C)nc2C(F)(F)F)c1C`, the “hERG current change (%, negative = inhibition) at 10uM” value is given as -0.0278%. Take `COc1ccc(C(NC(=O)/C=C\c2ccco2)c2ccc(OC)c(OC)c2)cc1` (centres unmarked): the “hERG current change (%, negative = inhibition) at 10uM” value is on record as -12%. For `CC(C)Cc1csc(NC(=O)C(C)C)c1C(=O)O`, the “hERG current change (%, negative = inhibition) at 10uM” value amounted to 11%. The value for `CCCCn1c(-c2ccc(OC)cc2)nc2c(=O)n(C)c(=O)[nH]c21` was 7.85%; that for `CC1CC2(CCCC2)N(C(=O)c2ccccc2)Cc2ccccc21` (centres unmarked) was 5.47%. With `COc1ccc(S(=O)(=O)N2CCOCC2)cc1Br`, the “hERG current change (%, negative = inhibition) at 10uM” value is reported as 12.4%. The result for `Cc1ccc(C2CC(=O)N(c3ccc(F)cc3)C3=C2C(=O)CCC3)cc1` (centres unmarked) reads 0.885%; that for `C/C(CC(=O)Nc1ccc(N(C)C)cc1)=N\NC(=O)c1ccc(C(C)(C)C)cc1`, 18.2%.

On to `Cc1cccc(C)c1N(CC(=O)NN=C1CCCCCC1)S(C)(=O)=O`, for which the “hERG current change (%, negative = inhibition) at 10uM” value is given as -4.3%. For the molecule `CC(=O)N1CCC2(CC1)CC(=O)c1cc(OCC(=O)N3CCCC3)ccc1O2`, the “hERG current change (%, negative = inhibition) at 10uM” value was found to be 9.03%. The value for `COc1ccc2nc(NC(=O)CSc3nnc(C)s3)sc2c1` was 10.4%. The result for `Br.CCCc1nnc2n1N=C(c1ccc(C)cc1)CS2` reads -12.5%. Take `Cc1ccc(NC(=O)c2cc(-n3cnnc3)ccc2Cl)c(C)c1`: the “hERG current change (%, negative = inhibition) at 10uM” value is reported as -21%.
